# Source: EPA's CvTdb concentration-time database
# The source gives many values for each of these; only a part stands here.
# Legend:
# Assay in all cases: concentration in plasma after dosing
# Rat [1] = settings: dosed: Perfluorodecanoic acid, 20 mg/kg, oral, Male, Harlan Sprague Dawley
# Rat [2] = settings: dosed: Perfluorodecanoic acid, 20 mg/kg, oral, Male, Harlan Sprague Dawley; remark: listed apart in the source
# Rat [3] = settings: dosed: Perfluorodecanoic acid, 10 mg/kg, oral, Female, Harlan Sprague Dawley
# Rat [4] = settings: dosed: Perfluorodecanoic acid, 10 mg/kg, oral, Female, Harlan Sprague Dawley; remark: listed apart in the source
# Rat [5] = settings: dosed: Perfluorodecanoic acid, 20 mg/kg, oral, Male, Harlan Sprague Dawley; remark: listed apart in the source
# Rat [6] = settings: dosed: Perfluorodecanoic acid, 20 mg/kg, oral, Female, Harlan Sprague Dawley
# Rat [7] = settings: 6 h; dosed: Perfluorooctane Sulfonate; 20 mg/kg; oral; Female; F344
# Rat [8] = settings: dosed: Perfluorooctane Sulfonate, 2 mg/kg, oral, Female, Harlan Sprague Dawley
# Rat [9] = settings: 24 h; dosed: Perfluorooctane Sulfonate; 20 mg/kg; oral; Female; F344
# Rat [10] = settings: 3360 h; dosed: Perfluorooctane Sulfonate; 20 mg/kg; oral; Male; Harlan Sprague Dawley
# Rat [11] = settings: 1848 h; dosed: Perfluorooctane Sulfonate; 2 mg/kg; oral; Female; Harlan Sprague Dawley
# Rat [12] = settings: dosed: Perfluorooctane Sulfonate, 20 mg/kg, oral, Male, Harlan Sprague Dawley
# Rat [13] = settings: 24 h; dosed: Perfluorooctane Sulfonate; 20 mg/kg; oral; Male; Harlan Sprague Dawley
# Rat [14] = settings: dosed: Perfluorooctane Sulfonate, 2 mg/kg, oral, Female, Harlan Sprague Dawley; remark: listed apart in the source
# Rat [15] = settings: 3360 h; dosed: Perfluorooctane Sulfonate; 20 mg/kg; oral; Male; Harlan Sprague Dawley; remark: listed apart in the source
# Rat [16] = settings: 1848 h; dosed: Perfluorooctane Sulfonate; 2 mg/kg; oral; Female; Harlan Sprague Dawley; remark: listed apart in the source
# Rat [17] = settings: 6 h; dosed: Perfluorooctane Sulfonate; 20 mg/kg; oral; Male; Harlan Sprague Dawley
# Rat [18] = settings: dosed: Perfluorooctanoic acid, 6 mg/kg, oral, Male, Harlan Sprague Dawley
# Rat [19] = settings: 12 h; dosed: Fluorotelomer alcohol 8+2; 24 mg/kg; oral; Male; Harlan Sprague Dawley
# Rat [20] = settings: 0.5 h; dosed: Fluorotelomer alcohol 8+2; 80 mg/kg; oral; Female; Harlan Sprague Dawley
# Rat [21] = settings: 1 h; dosed: Fluorotelomer alcohol 8+2; 24 mg/kg; oral; Male; Harlan Sprague Dawley
# Rat [22] = settings: dosed: Perfluorooctanoic acid, 6 mg/kg, oral, Male, Harlan Sprague Dawley; remark: listed apart in the source
# Rat [23] = settings: 9 h; dosed: Fluorotelomer alcohol 8+2; 80 mg/kg; oral; Female; Harlan Sprague Dawley
# Rat [24] = settings: dosed: Perfluorooctanoic acid, 6 mg/kg, iv, Male, F344
# Rat [25] = settings: dosed: Fluorotelomer alcohol 8+2, 24 mg/kg, oral, Male, Harlan Sprague Dawley
# Rat [26] = settings: 12 h; dosed: Fluorotelomer alcohol 8+2; 24 mg/kg; oral; Male; Harlan Sprague Dawley; remark: listed apart in the source
# Rat [27] = settings: dosed: Perfluorooctanoic acid, 40 mg/kg, iv, Male, F344
# Rat [28] = settings: 12 h; dosed: Perfluorooctanoic acid; 12 mg/kg; oral; Male; Harlan Sprague Dawley
# Rat [29] = settings: dosed: Perfluorooctanoic acid, 6 mg/kg, iv, Male, F344; remark: listed apart in the source
# Rat [30] = settings: dosed: Fluorotelomer alcohol 8+2, 48 mg/kg, oral, Male, Harlan Sprague Dawley
# Rat [31] = settings: dosed: Perfluorooctanoic acid, 320 mg/kg, oral, Female, Harlan Sprague Dawley
# Rat [32] = settings: dosed: Perfluorooctanoic acid, 48 mg/kg, oral, Male, Harlan Sprague Dawley
# Rat [33] = settings: dosed: Perfluorooctanoic acid, 6 mg/kg, oral, Male, Harlan Sprague Dawley; remark: listed apart in the source
# Rat [34] = settings: dosed: Perfluorooctanoic acid, 40 mg/kg, iv, Male, F344; remark: listed apart in the source
# Rat [35] = settings: 48 h; dosed: Perfluorooctanoic acid; 80 mg/kg; oral; Female; Harlan Sprague Dawley
structure (smiles),measurement,setting,value
O=C(O)C(F)(F)C(F)(F)C(F)(F)C(F)(F)C(F)(F)C(F)(F)C(F)(F)C(F)(F)C(F)(F)F [Perfluorodecanoic acid],concentration in plasma,Rat [1]; 1 h,28500 ng/mL
same,concentration in plasma,Rat [1]; 192 h,44700 ng/mL
same,concentration in plasma,Rat [1]; 2520 h,6790 ng/mL
same,concentration in plasma,Rat [2]; 6 h,88400 ng/mL
same,concentration in plasma,Rat [2]; 864 h,18700 ng/mL
same,concentration in plasma,Rat [3]; 0.5 h,21000 ng/mL
same,concentration in plasma,Rat [3]; 192 h,52300 ng/mL
same,concentration in plasma,Rat [3]; 1848 h,9420 ng/mL
same,concentration in plasma,Rat [4]; 6 h,47300 ng/mL
same,concentration in plasma,Rat [4]; 1200 h,12500 ng/mL
same,concentration in plasma,Rat [4]; 3360 h,2940 ng/mL
same,concentration in plasma,Rat [5]; 6 h,77200 ng/mL
same,concentration in plasma,Rat [5]; 864 h,17500 ng/mL
same,concentration in plasma,Rat [6]; 6 h,96300 ng/mL
same,concentration in plasma,Rat [6]; 864 h,29600 ng/mL
O=S(=O)([O-])C(F)(F)C(F)(F)C(F)(F)C(F)(F)C(F)(F)C(F)(F)C(F)(F)C(F)(F)F [Perfluorooctane Sulfonate],concentration in plasma,Rat [7],90000 ng/mL
same,concentration in plasma,Rat [8]; 5 min,63 ng/mL
same,concentration in plasma,Rat [8]; 12 h,7030 ng/mL
same,concentration in plasma,Rat [8]; 1200 h,3430 ng/mL
same,concentration in plasma,Rat [9],116000 ng/mL
same,concentration in plasma,Rat [10],6170 ng/mL
same,concentration in plasma,Rat [11],1580 ng/mL
same,concentration in plasma,Rat [12]; 1 h,30300 ng/mL
same,concentration in plasma,Rat [12]; 528 h,33900 ng/mL
same,concentration in plasma,Rat [12]; 2520 h,7320 ng/mL
same,concentration in plasma,Rat [13],88700 ng/mL
same,concentration in plasma,Rat [14]; 5 min,161 ng/mL
same,concentration in plasma,Rat [14]; 192 h,4840 ng/mL
same,concentration in plasma,Rat [14]; 1200 h,2980 ng/mL
same,concentration in plasma,Rat [15],1370 ng/mL
same,concentration in plasma,Rat [16],1880 ng/mL
same,concentration in plasma,Rat [17],93200 ng/mL
O=C(O)C(F)(F)C(F)(F)C(F)(F)C(F)(F)C(F)(F)C(F)(F)C(F)(F)F [Perfluorooctanoic acid],concentration in plasma,Rat [18]; 0.25 h,9470 ng/mL
same,concentration in plasma,Rat [18]; 12 h,36500 ng/mL
same,concentration in plasma,Rat [18]; 528 h,9330 ng/mL
same,concentration in plasma,Rat [19],658 ng/mL
same,concentration in plasma,Rat [20],422 ng/mL
same,concentration in plasma,Rat [21],423 ng/mL
same,concentration in plasma,Rat [22]; 1 h,23500 ng/mL
same,concentration in plasma,Rat [22]; 24 h,40200 ng/mL
same,concentration in plasma,Rat [22]; 864 h,5920 ng/mL
same,concentration in plasma,Rat [23],2990 ng/mL
same,concentration in plasma,Rat [24]; 0.5 h,47800 ng/mL
same,concentration in plasma,Rat [24]; 12 h,47200 ng/mL
same,concentration in plasma,Rat [24]; 1200 h,1240 ng/mL
same,concentration in plasma,Rat [25]; 0.25 h,17.8 ng/mL
same,concentration in plasma,Rat [25]; 24 h,1110 ng/mL
same,concentration in plasma,Rat [26],898 ng/mL
same,concentration in plasma,Rat [27]; 0.5 h,219000 ng/mL
same,concentration in plasma,Rat [27]; 12 h,28000 ng/mL
same,concentration in plasma,Rat [28],76200 ng/mL
same,concentration in plasma,Rat [29]; 1 h,45900 ng/mL
same,concentration in plasma,Rat [29]; 192 h,18400 ng/mL
same,concentration in plasma,Rat [30]; 0.25 h,15.7 ng/mL
same,concentration in plasma,Rat [30]; 6 h,1780 ng/mL
same,concentration in plasma,Rat [31]; 0.25 h,91700 ng/mL
same,concentration in plasma,Rat [31]; 9 h,358000 ng/mL
same,concentration in plasma,Rat [31]; 96 h,4790 ng/mL
same,concentration in plasma,Rat [32]; 1 h,152000 ng/mL
same,concentration in plasma,Rat [32]; 24 h,230000 ng/mL
same,concentration in plasma,Rat [32]; 864 h,13800 ng/mL
same,concentration in plasma,Rat [33]; 0.25 h,9660 ng/mL
same,concentration in plasma,Rat [33]; 6 h,52600 ng/mL
same,concentration in plasma,Rat [33]; 528 h,6980 ng/mL
same,concentration in plasma,Rat [34]; 3 h,98200 ng/mL
same,concentration in plasma,Rat [34]; 48 h,43.8 ng/mL
same,concentration in plasma,Rat [35],284 ng/mL
